Reference: paper PMC10668032
This is one part of the list. At the low end of the ranking the order means little.

molecular target: SIX1 homeodomain (reference allele) (UniProt Q15475); test: universal protein binding microarray; details: Universal all-10-mer PBM (8x60K, AMADID 030236), 300 nM GST-tagged protein, Alexa Fluor 488 anti-GST; buffer, salt, pH and temperature not stated; high values mean tight binding; most listed sequences are background and not binding sites; double strand, one strand shown

| Sequence | binding signal |
| --- | --- |
| TCACCTAA | -0.0448 E-score |
| AATCGCCT | -0.03 E-score |
| ACATTGCT | -0.0283 E-score |
| ATGCCCTC | -0.000855 E-score |
| GGCGTGGA | -0.0236 E-score |
| AAATGGAC | -0.0559 E-score |
| GTTTTTAA | -0.042 E-score |
| ACGAAGGG | -0.0914 E-score |
| AGCATGTG | -0.0944 E-score |
| AGCAATTG | -0.0871 E-score |
| GCACCCAA | 0.0452 E-score |
| ATGTCACC | -0.00357 E-score |
| GAGCCTCA | -0.241 E-score |
| GTTGCTCA | -0.0503 E-score |
| CATTGCGA | 0.103 E-score |
| TACCTCCA | 0.0612 E-score |
| GTAGCTCA | -0.0163 E-score |
| ACTTGCTC | -0.196 E-score |
| CATCTCTA | -0.0365 E-score |
| TCAACCCA | -0.0587 E-score |
| CCCGACAC | 0.19 E-score |
| GCGAGGTA | -0.0286 E-score |

| Sequence | binding signal |
| --- | --- |
| AACTTAGC | -0.128 E-score |
| CGCGGTGA | 0.121 E-score |
| CCCGGTTC | 0.111 E-score |
| CCATTTAC | 0.0277 E-score |
| GTTCGTCA | -0.234 E-score |
| ACAATCCC | 0.283 E-score |
| CAGCCATC | -0.179 E-score |
| AGAACAAC | -0.266 E-score |
| ACTTAGCC | -0.148 E-score |
| AGGTTAAC | -0.16 E-score |
| GTGACTGA | -0.0785 E-score |
| TGAGCTCA | 0.0704 E-score |
| CTGGATAA | 0.0999 E-score |
| AAGGCCCT | -0.233 E-score |
| ATGACTCA | -0.191 E-score |
| CAAGCCGA | 0.0925 E-score |
| ACGCACAC | -0.078 E-score |
| AGCTGCGG | 0.0368 E-score |
| CACTTAAA | -0.158 E-score |
| GAATTTAA | -0.183 E-score |
| ATGAGAAA | -0.303 E-score |
| ATGCGTGG | -0.167 E-score |

| Sequence | binding signal |
| --- | --- |
| AATAGGCA | -0.042 E-score |
| AGCGATCA | 0.206 E-score |
| GTTGGTCA | 0.00924 E-score |
| ACAATATG | 0.239 E-score |
| CAATGGTA | 0.0387 E-score |
| AACCCAAA | -0.117 E-score |
| CTGCAATC | -0.0479 E-score |
| CACACCGG | 0.224 E-score |
| AGATATGC | 0.353 E-score |
| CGTAGAAG | -0.015 E-score |
| AACCCGCG | 0.0406 E-score |
| CATCCGAC | 0.209 E-score |
| AACCAGCG | -0.101 E-score |
| GGTATTAA | 0.366 E-score |
| GGACTACA | -0.228 E-score |
| CAGGTGGC | -0.125 E-score |
| ACGTTCTA | -0.0736 E-score |
| GCACATGC | -0.227 E-score |
| CCTCCCGC | -0.0902 E-score |
| CCTTCGGC | -0.144 E-score |
| ACGTGTCT | 0.0274 E-score |
| GTAGGACA | -0.0305 E-score |

| Sequence | binding signal |
| --- | --- |
| ACATCTTG | -0.0455 E-score |
| ACACGTAG | 0.00289 E-score |
| GAAAGCAC | -0.139 E-score |
| AAATACCT | 0.173 E-score |
| CCATTGAA | -0.207 E-score |
| GGCCCGAC | -0.122 E-score |
| GACCGTAA | -0.161 E-score |
| CCCGTCGG | -0.00119 E-score |
| TCGCCTAA | 0.0245 E-score |
| ATCTGACA | 0.213 E-score |
| ATTCCCCG | 0.0197 E-score |
| AAGACATA | 0.0292 E-score |
| CGGAGCAA | -0.265 E-score |
| GGAGTAAC | -0.207 E-score |
| AGTTCCTA | -0.113 E-score |
| GGTAAGAA | -0.119 E-score |
| CGAACATA | 0.0495 E-score |
| AGTCCTTA | -0.122 E-score |
| GGCTCCCA | -0.265 E-score |
| AACGGAAG | -0.13 E-score |
| GCTGAAGC | -0.208 E-score |
| AGAAAAGG | -0.169 E-score |

| Sequence | binding signal |
| --- | --- |
| ATGCTTCA | -0.108 E-score |
| ACTCATAC | 0.0727 E-score |
| GGTGGACA | -0.141 E-score |
| TGCCCAAA | -0.072 E-score |
| ACTGCTGG | -0.234 E-score |
| ATAGTCAT | 0.0914 E-score |
| CACCTAGG | 0.0607 E-score |
| GCGTACAC | 0.0476 E-score |
| GCTTACCC | -0.0147 E-score |
| AATGAGCC | 0.158 E-score |
| CCTCTACA | -0.0413 E-score |
| CGTTTAGA | -0.0855 E-score |
| CACGAGTA | 0.144 E-score |
| ACTATACT | 0.211 E-score |
| GTGATGGA | 0.0692 E-score |
| AACTACAC | 0.169 E-score |
| GAATTCTA | -0.11 E-score |
| ACGTCTAA | 0.024 E-score |
| CTGAGCTC | -0.0902 E-score |
| CACCTGGG | 0.155 E-score |
| GCACCAAC | -0.154 E-score |
